Reference: paper PMC4336329 (PLoS ONE, 2015)
Among all 310,000 compounds or so, about 2,200 (0.71%) showed an effect of 50% or more. Effects have a minus sign here. The list shows a part of the results.

Molecular target: human ether-à-go-go-related gene (hERG) potassium channel (human, UniProt Q12809)
Test: primary screen, population patch clamp on CHO cells stably expressing hERG

Sequence of human ether-à-go-go-related gene (hERG) potassium channel (Q12809 whole entry, looked up): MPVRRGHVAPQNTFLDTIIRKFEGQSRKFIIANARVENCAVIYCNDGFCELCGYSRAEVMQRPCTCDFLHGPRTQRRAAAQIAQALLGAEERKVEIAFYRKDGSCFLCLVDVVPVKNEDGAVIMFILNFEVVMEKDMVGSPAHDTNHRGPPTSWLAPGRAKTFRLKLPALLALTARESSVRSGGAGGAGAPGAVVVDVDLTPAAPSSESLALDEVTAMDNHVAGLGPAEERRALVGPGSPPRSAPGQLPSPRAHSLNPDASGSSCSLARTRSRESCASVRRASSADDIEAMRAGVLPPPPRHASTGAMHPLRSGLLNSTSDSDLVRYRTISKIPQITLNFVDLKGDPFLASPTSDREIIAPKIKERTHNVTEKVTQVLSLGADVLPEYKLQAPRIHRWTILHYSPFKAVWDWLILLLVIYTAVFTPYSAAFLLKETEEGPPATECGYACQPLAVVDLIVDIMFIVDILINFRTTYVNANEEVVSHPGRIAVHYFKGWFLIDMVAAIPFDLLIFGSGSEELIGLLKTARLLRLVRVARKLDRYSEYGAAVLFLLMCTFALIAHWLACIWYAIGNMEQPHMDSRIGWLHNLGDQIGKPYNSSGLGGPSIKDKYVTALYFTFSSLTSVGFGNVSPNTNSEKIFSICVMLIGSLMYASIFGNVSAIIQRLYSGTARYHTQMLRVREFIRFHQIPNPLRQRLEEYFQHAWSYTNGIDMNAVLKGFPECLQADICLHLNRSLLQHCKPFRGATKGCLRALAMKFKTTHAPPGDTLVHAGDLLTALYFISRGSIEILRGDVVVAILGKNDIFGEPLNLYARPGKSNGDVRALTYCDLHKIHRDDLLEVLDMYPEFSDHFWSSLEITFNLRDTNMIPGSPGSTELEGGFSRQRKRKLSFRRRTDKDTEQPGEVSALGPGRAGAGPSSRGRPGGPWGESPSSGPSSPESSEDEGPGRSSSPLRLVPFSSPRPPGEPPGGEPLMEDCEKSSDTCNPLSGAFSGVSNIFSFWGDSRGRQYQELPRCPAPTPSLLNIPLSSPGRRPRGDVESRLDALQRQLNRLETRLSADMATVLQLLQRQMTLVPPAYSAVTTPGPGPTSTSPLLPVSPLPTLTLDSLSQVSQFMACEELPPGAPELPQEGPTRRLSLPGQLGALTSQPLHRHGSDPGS

Question: How did the “hERG current change (%, negative = inhibition) at 1uM” value turn out when COCc1cc(C)nc(Nc2ccccc2C)c1C#N was run?
Answer: -6.21%

Question: How did the “hERG current change (%, negative = inhibition) at 1uM” value turn out when COc1ccc(/C=N/Nc2ncnc3c2[nH]c2ccc(C)cc23)c(OC)c1OC was run?
Answer: 8.4%

Question: With O=C(Nc1cnccn1)c1cccc(C(F)(F)F)c1 as the molecule, how does the “hERG current change (%, negative = inhibition) at 1uM” value read?
Answer: 2.47%

Question: For CCCCCCn1c(SCC(C)C)nc2c1c(=O)[nH]c(=O)n2C, which “hERG current change (%, negative = inhibition) at 1uM” value is on record?
Answer: 10.1%

Question: Which “hERG current change (%, negative = inhibition) at 1uM” value does the source give for O=C(CSc1ccc2c(c1)OCCO2)NC(=O)Cc1ccccc1 here?
Answer: 12.9%

Question: Which “hERG current change (%, negative = inhibition) at 1uM” value does the source give for CN(C)CCNC(=O)c1cc2c(s1)-c1ccccc1OC2 here?
Answer: -18.8%

Question: For Cc1cc(SCCC(=O)O)nc2ccccc12, which “hERG current change (%, negative = inhibition) at 1uM” value is on record?
Answer: 22.5%

Question: How did the “hERG current change (%, negative = inhibition) at 1uM” value turn out when O=C(Nc1ccc(F)cc1)Nc1ccc2ccccc2n1 was run?
Answer: 10.5%

Question: For O=C(O)c1ccc(CP(=O)(c2ccccc2)c2ccccc2)cc1, which “hERG current change (%, negative = inhibition) at 1uM” value is on record?
Answer: 14%

Question: For CC(=O)Nc1ccc(S(=O)(=O)NC2(C(F)(F)F)NC(=O)N(C3CCCCC3)C2=O)cc1 (stereo not drawn), which “hERG current change (%, negative = inhibition) at 1uM” value is on record?
Answer: 9.82%

Question: With COc1ccc(C(=O)Nc2ccc3c(c2)OCO3)cc1OC as the molecule, how does the “hERG current change (%, negative = inhibition) at 1uM” value read?
Answer: 3.07%

Question: With COc1ccc(C2Nc3cc(OC)ccc3-n3cccc32)cc1 (stereo not drawn) as the molecule, how does the “hERG current change (%, negative = inhibition) at 1uM” value read?
Answer: 8.11%

Question: Which “hERG current change (%, negative = inhibition) at 1uM” value does the source give for COc1ccc(C(CNC(=O)c2ccc(OC)c(S(=O)(=O)N3CCCC3)c2)N2CCCC2)cc1 (stereo not drawn) here?
Answer: 13.6%

Question: Which “hERG current change (%, negative = inhibition) at 1uM” value does the source give for COc1cc(OC)cc(C(=O)Nc2cccc3ccccc23)c1 here?
Answer: 13.1%

Question: With O=C(c1ccc(Br)s1)N1CCN(S(=O)(=O)c2ccccc2)CC1 as the molecule, how does the “hERG current change (%, negative = inhibition) at 1uM” value read?
Answer: 6.57%

Question: For COc1ccc(CN2CCCC(CO)(Cc3ccc(F)cc3)C2)c(OC)c1OC (stereo not drawn), which “hERG current change (%, negative = inhibition) at 1uM” value is on record?
Answer: -49%

Question: Which “hERG current change (%, negative = inhibition) at 1uM” value does the source give for O=C(Nc1ccc(F)c(F)c1)c1cc(S(=O)(=O)N2CCN(c3ccccn3)CC2)ccc1F here?
Answer: 7.92%

Question: How did the “hERG current change (%, negative = inhibition) at 1uM” value turn out when COc1ccc(S(=O)(=O)N2CCc3ccccc3C2)cc1OC was run?
Answer: 4%

Question: How did the “hERG current change (%, negative = inhibition) at 1uM” value turn out when Cc1ccc(-c2nc3ncccn3c2Nc2ccccc2C)o1 was run?
Answer: 1.51%

Question: Which “hERG current change (%, negative = inhibition) at 1uM” value does the source give for COc1ccccc1N1CCN(c2cc(=O)n(-c3ccccc3Cl)c(=O)[nH]2)CC1 here?
Answer: 13.9%

Question: CCOc1ccc(NC(=O)C2=NN(c3ccccc3)C(=O)CC2)cc1S(=O)(=O)N1CCCCC1 was tested. Which “hERG current change (%, negative = inhibition) at 1uM” value did it give?
Answer: 5.13%

Question: How did the “hERG current change (%, negative = inhibition) at 1uM” value turn out when CCc1nc2ccccc2c(C(=O)OCCN2C(=O)c3ccccc3C2=O)c1C was run?
Answer: 12.4%

Question: How did the “hERG current change (%, negative = inhibition) at 1uM” value turn out when CCOC(=O)c1c(NC(=O)CNCCOC)sc2c1CCCC2 was run?
Answer: 5.71%

Question: O=C(Nc1ccccc1O)c1c(O)c2c([nH]c1=O)CCCC2 was tested. Which “hERG current change (%, negative = inhibition) at 1uM” value did it give?
Answer: 17.9%

Question: How did the “hERG current change (%, negative = inhibition) at 1uM” value turn out when COc1cc(-n2cnnn2)ccc1S(=O)(=O)N1CCOCC1 was run?
Answer: 6.66%

Question: Cc1ccc(-c2cc(-c3ccccc3C)[nH]n2)c(O)c1 was tested. Which “hERG current change (%, negative = inhibition) at 1uM” value did it give?
Answer: 4.55%

Question: O=C(CNc1ccc(F)cc1)N/N=C1\CCCc2ccccc21 was tested. Which “hERG current change (%, negative = inhibition) at 1uM” value did it give?
Answer: 8.18%

Question: With O=C(Nc1ccc(F)cc1F)c1cc2n(n1)C(C(F)(F)F)C1CCCCC1N2 (stereo not drawn) as the molecule, how does the “hERG current change (%, negative = inhibition) at 1uM” value read?
Answer: 10.2%

Question: O=C(COC(=O)c1cccs1)Nc1ccc(S(=O)(=O)N2CCOCC2)cc1 was tested. Which “hERG current change (%, negative = inhibition) at 1uM” value did it give?
Answer: 6.27%

Question: COc1ccc(CCNC(=O)CSc2nnc(Cc3cccn3C)n2C)cc1OC was tested. Which “hERG current change (%, negative = inhibition) at 1uM” value did it give?
Answer: 3.62%

Question: How did the “hERG current change (%, negative = inhibition) at 1uM” value turn out when Cc1cc(S(=O)(=O)N2CCN(c3ccc(F)cc3)CC2)ccc1-n1cnnn1 was run?
Answer: 3.88%

Question: How did the “hERG current change (%, negative = inhibition) at 1uM” value turn out when O=C(Nc1ccccc1-c1ccccc1)c1cccc(C(F)(F)F)c1 was run?
Answer: 12.7%

Question: Cc1nn(C)c(C(=O)N/N=C/c2ccncc2)c1Cl was tested. Which “hERG current change (%, negative = inhibition) at 1uM” value did it give?
Answer: 7.79%

Question: For Cc1ccc(-n2nnnc2SCC(=O)NCC2(N3CCCCC3)CCCCC2)c(C)c1, which “hERG current change (%, negative = inhibition) at 1uM” value is on record?
Answer: -201%

Question: COc1ccc(C(=O)NCc2nnc(SCC(=O)N3CCCCC3)o2)cc1 was tested. Which “hERG current change (%, negative = inhibition) at 1uM” value did it give?
Answer: 13.5%

Question: Which “hERG current change (%, negative = inhibition) at 1uM” value does the source give for Cc1[nH]n(-c2ccccc2)c(=O)c1N=Nc1ccc(F)cc1 here?
Answer: 12%

Question: How did the “hERG current change (%, negative = inhibition) at 1uM” value turn out when O=C(c1ccco1)N1CCN(S(=O)(=O)c2ccc3c(c2)CCN3C(=O)C2CC2)CC1 was run?
Answer: 4.55%

Question: With COc1ccc(C)cc1NC(=O)CSc1nnc2ccc(-c3ccncc3)nn12 as the molecule, how does the “hERG current change (%, negative = inhibition) at 1uM” value read?
Answer: -15%

Question: Which “hERG current change (%, negative = inhibition) at 1uM” value does the source give for O=C(NCCc1c[nH]c2ccccc12)C(=O)NCC1OCCN1S(=O)(=O)c1ccc(F)cc1 (stereo not drawn) here?
Answer: -4.12%

Question: With O=C(Nc1ccc(-c2nnc(-c3ccccc3)o2)cc1)C(F)(F)F as the molecule, how does the “hERG current change (%, negative = inhibition) at 1uM” value read?
Answer: 9.73%

Question: How did the “hERG current change (%, negative = inhibition) at 1uM” value turn out when COC(=O)CCc1c(C)c(C#N)c2nc3ccccc3n2c1N1CCCC1 was run?
Answer: 4.96%

Question: Cc1c(C(=O)Nc2ccccc2)sc2nc[nH]c(=O)c12 was tested. Which “hERG current change (%, negative = inhibition) at 1uM” value did it give?
Answer: -8.34%

Question: How did the “hERG current change (%, negative = inhibition) at 1uM” value turn out when NC(=O)C1(c2ccccc2)CCCN1C(=O)c1ccccc1Br (stereo not drawn) was run?
Answer: 11.7%

Question: With CCn1c(C)nc2cc(C(=O)NNC(=S)Nc3ccccc3)ccc21 as the molecule, how does the “hERG current change (%, negative = inhibition) at 1uM” value read?
Answer: 16.1%

Question: With Cc1nc2ccccc2c(=O)n1NC(=O)c1cccc(Cl)c1 as the molecule, how does the “hERG current change (%, negative = inhibition) at 1uM” value read?
Answer: 12%
